# From PubChem BioAssay AID488969 (Vanderbilt High Throughput Screening Facility, 2010)
# In all, about 110,000 compounds were measured (“z-score”: median about -0.1, highest 2% from about 2 on). Some of the results follow. The source made the active and inactive calls.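 The calls were made as follows: active = z-score in the third read window above 3 or below -3; inactive = the rest.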
# Molecular target: Metabotropic glutamate receptor 8 (Rattus norvegicus) (UniProt P70579)
# Assay: rat mGluR8 modulators via GIRK flux, primary screen, cell-based, thallium flux, HTS (AID 488969)
# Details: HEK293 rat mGluR8, GIRK (G protein-gated inwardly rectifying potassium channel) thallium flux, FluoZin2; at 10 µM; stronger effect = higher value; submaximal glutamate (EC20) added with thallium
# Sequence of UniProt P70579 (P70579 whole entry, looked up): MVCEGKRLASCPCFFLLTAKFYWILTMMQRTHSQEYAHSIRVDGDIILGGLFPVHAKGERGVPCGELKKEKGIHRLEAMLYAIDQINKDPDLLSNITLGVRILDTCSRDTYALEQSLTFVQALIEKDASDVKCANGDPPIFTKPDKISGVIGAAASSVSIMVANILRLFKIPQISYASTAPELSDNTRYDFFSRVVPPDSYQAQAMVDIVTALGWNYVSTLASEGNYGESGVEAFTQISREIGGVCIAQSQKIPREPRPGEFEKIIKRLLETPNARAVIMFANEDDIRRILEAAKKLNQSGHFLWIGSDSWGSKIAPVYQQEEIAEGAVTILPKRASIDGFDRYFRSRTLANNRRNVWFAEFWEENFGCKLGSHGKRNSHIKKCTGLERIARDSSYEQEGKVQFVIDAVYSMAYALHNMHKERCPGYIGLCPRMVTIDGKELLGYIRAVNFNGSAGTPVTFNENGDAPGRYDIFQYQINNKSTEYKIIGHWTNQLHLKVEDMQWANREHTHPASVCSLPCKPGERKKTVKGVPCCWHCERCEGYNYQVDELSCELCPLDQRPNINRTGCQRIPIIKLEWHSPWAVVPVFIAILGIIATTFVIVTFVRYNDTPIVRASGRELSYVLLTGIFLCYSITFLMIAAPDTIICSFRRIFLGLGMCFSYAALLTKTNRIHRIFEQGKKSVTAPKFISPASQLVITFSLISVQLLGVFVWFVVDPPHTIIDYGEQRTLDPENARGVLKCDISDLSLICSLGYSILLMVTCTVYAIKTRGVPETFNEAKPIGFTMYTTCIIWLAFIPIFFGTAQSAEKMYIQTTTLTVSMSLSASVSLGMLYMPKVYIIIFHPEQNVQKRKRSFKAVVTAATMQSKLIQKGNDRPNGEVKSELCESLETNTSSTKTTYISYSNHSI
row,Compound,z-score
1,Cc1ccc(Nc2nc(NCC3CCCO3)nc(N)c2[N+](=O)[O-])cc1C (centres undefined),0.524
2,CC(C)OP(=O)(OC(C)C)C(NC(=O)c1ccc(Br)cc1)c1ccccc1 (centres undefined),-0.573
3,Cc1oc(-c2ccccc2F)nc1CS(=O)(=O)CC(=O)NCc1ccco1,-0.265
4,Cc1nc2ccc(NC(=O)N3CCOCC3)cc2s1,0.452
5,COc1ccc(S(=O)(=O)N2C3CCC2CC(NC(=O)NC2CCCCC2)C3)cc1 (centres undefined),0.764
6,CCOC(=O)C1CCCN(C(=S)Nc2ccc(C)cc2C)C1 (centres undefined),0.0188
7,COc1cc(C=O)c(Br)cc1OC1CCCC1,2.09
8,CC(=O)Oc1oc(-c2ccccc2)nc1/C=N/c1ccccn1,-1.65
9,COCCNc1nc(N)c([N+](=O)[O-])c(NCC2CCCO2)n1 (centres undefined),0.0244
10,CCC(=O)c1ccc(N2CCOCC2)c(F)c1,-0.287
11,Nc1ccc(Nc2ccccc2)cc1,-0.0331
12,CCC(C)NS(=O)(=O)c1cccs1 (centres undefined),0.0332
13,COc1ccc(C)cc1N(CC(=O)Nc1cccc(N(C)S(C)(=O)=O)c1)S(C)(=O)=O,-0.07
14,CC1(C)CC(=O)N(CC(=O)NCc2ccccc2)c2ccccc2S1(=O)=O,-0.409
15,CC(=O)N1CCN(c2ccc(NC(=S)NC(=O)/C=C/c3ccccc3)cc2)CC1,0.391
16,Cc1ccc2nc(-c3ccc(NC(=O)c4ccco4)cc3)[nH]c2c1,0.0819
17,O=C(CSc1ncnc2c1oc1ccccc12)Nc1cccc(C(F)(F)F)c1,-0.491
18,O=C(CCCc1ccccc1)Nc1nncs1,-1.19
19,CC(C)c1ccc(C(C(=O)NC2CCCC2)N(C(=O)CNC(=O)c2ccco2)c2cccnc2)cc1 (centres undefined),-0.665
20,CC(C)CC(=O)Nc1ccc(-c2cn3ccsc3n2)cc1,-0.00111
21,Cc1cccc(N2CCN(C(=O)c3ccc(Cl)c(S(=O)(=O)N4CCc5ccccc5C4)c3)CC2)c1C,active: 3.61
22,C/C(=N/OCO/N=C(\C)c1ccc(F)cc1F)c1ccc(F)cc1F,-0.222

row,Compound,z-score
1,COc1cccc(-c2nc(-c3ccc(NC(=O)Cc4ccccc4OC)cc3)no2)c1,0.363
2,N#Cc1cccc(C(c2nnnn2C2CCCC2)N2CCC(Cc3ccccc3)CC2)c1 (centres undefined),-0.0758
3,O=C(NCCc1ccccc1)/C(=N\O)c1ccccc1,1.09
4,Cc1ccc(C2NC(=O)Cc3ccccc32)cc1 (centres undefined),0.00417
5,CSCCC(NC(=O)c1cccc(C)c1)C(=O)OCC(=O)NC(=O)c1cccn1C (centres undefined),-0.329
6,CC(=O)NCC1=C(NC(C)=O)C2CC1C(C)(C)C2C (centres undefined),1.18
7,N#Cc1c2c(c(NCc3cccnc3)n3c1nc1ccccc13)CCC2,-2.03
8,COc1cc(/C=N/NC(N)=S)cc(Br)c1OCc1ccccc1F,-0.174
9,COc1ccccc1C(=O)OCCN1CCOCC1,0.692
10,CS(=O)(=O)N(CC(=O)N1CCN(c2ccccc2)CC1)c1ccc(Cl)c(C(F)(F)F)c1,-0.0753
11,CCN1CCc2c(C#N)c(N3CCOCC3)nc(NCc3ccccc3)c2C1,0.164
12,Cc1cc(C)c2nc(NC(=O)[C@@H](NC(=O)c3cccc(S(=O)(=O)N4CCOCC4)c3)C(C)C)sc2c1,-0.0566
13,Cc1ccc2nc(SC(C(=O)c3ccccc3)c3ccccc3)nc(C)c2c1 (centres undefined),-0.141
14,Cc1nc2ccccc2n1C(=O)c1cc(-c2ccc(Br)cc2)nc2ccccc12,-0.166
15,CC1Cc2nc(SCC(=O)c3ccccc3)n(Cc3ccccc3)c(=O)c2S1 (centres undefined),-0.123
16,CCOC(=O)CNc1c(-c2ccccc2)nc2ccc(Cl)cn12,-0.241
17,C=CCOc1ccc(/C=N/NC(=O)CN(c2cc(Cl)ccc2OC)S(=O)(=O)c2ccc(C)c([N+](=O)[O-])c2)cc1,0.0567
18,Cc1ccc(S(=O)(=O)N2c3ccccc3NC(=O)CC2C)cc1 (centres undefined),-0.22
19,Cc1cccc(N2CCN(C(=O)c3ccoc3C)CC2)c1C,-0.311
20,CC(C)C1S/C(=N/N=C/c2ccco2)NC1=O (centres undefined),-0.192
21,CCCCSc1nc2ccc(Nc3nc(N4CCOCC4)nc(N4CCOCC4)n3)cc2s1,-0.297
22,COCCNC(=O)C1CC(c2ccc(F)cc2)=NO1 (centres undefined),-0.0424

row,Compound,z-score
1,Cc1ccc(C)c(N2CCN(C(=O)C3CCCN(S(=O)(=O)c4c(C)[nH]c(=O)[nH]c4=O)C3)CC2)c1 (centres undefined),-0.243
2,CCNC(=S)N/N=C/c1c(Cl)cccc1Cl,active: 5.15
3,CC1CC(N(C(=O)c2ccccc2Cl)c2ccccc2)c2ccccc2N1 (centres undefined),-0.277
4,Cc1ccc(S(=O)(=O)c2c(N)n(CCC(C)C)c3nc4ccccc4nc23)cc1,-0.205
5,Cc1cc(C)cc(OCc2nnc(SCC(=O)OC(C)C)o2)c1,-1.32
6,Cc1ccccc1NC(=O)NCCN1C(=O)C2C3C=CC(C3)C2C1=O (centres undefined),0.682
7,O=C1c2ccccc2C(=O)N1CC(O)COCc1ccccc1 (centres undefined),-0.538
8,Cc1cc(C)c(NC(=O)c2ccoc2C)c(C)c1,0.489
9,Cc1cccc(N(CC(=O)N2CCOCC2)S(C)(=O)=O)c1C,0.189
10,COC(=O)Cn1cnc2c1c(=O)n(C)c(=O)n2C,-0.32
11,O=C(C[n+]1cc(-c2ccc(F)cc2)n2c1CCC2)Nc1nc(-c2ccc(F)cc2)cs1,0.552
12,COC1=C(Nc2ccc(C)cc2)C(=O)c2ccccc2C1=O,-0.651
13,COc1ccc(CSc2nc3ccccc3[nH]2)cc1,0.53
14,Cc1cc(C(=O)OCC(=O)c2ccc(Br)s2)c(C)o1,-0.018
15,CC(=O)c1cn(CC(=O)Nc2ccccc2)c2ccccc12,0.0362
16,CC(C)c1cc(C(=O)Nc2cc(Br)ccc2O)no1,-0.161
17,COCCCNc1cc(C)nc2ccccc12,0.57
18,O=C(O)c1cccc(Nc2nc(-c3cccnc3)nc3ccccc23)c1,-0.747
19,Cc1cc(C)c2c(n1)nn1c(N3CCN(c4cccc(Cl)c4)CC3)cc(C)nc21,-0.292
20,COc1ccc(CC(=O)Nc2cccc(-c3nnc(-c4ccccc4)o3)c2)cc1OC,-0.509
21,O=C(O)c1ccc(CNCc2ccc(Cl)cc2Cl)cc1,-0.14
22,O=C(Nc1ccc(O)cc1)c1cc2n(n1)C(C(F)(F)F)CC(c1ccco1)N2 (centres undefined),0.91

row,Compound,z-score
1,COc1ccc(CNC(=O)C2CCN(c3nccs3)CC2)cc1,-0.318
2,COc1ccc(S(=O)(=O)NC(CC(=O)NCc2ccco2)c2ccco2)cc1 (centres undefined),0.275
3,O=C(CN1C(=O)c2cccc3cccc1c23)Nc1ccccc1C(=O)NCc1ccco1,0.291
4,COCCNC(=O)c1ccccc1NC(=O)CN(c1ccc2c(c1)OCO2)S(C)(=O)=O,0.501
5,COc1ccccc1/C=N/OCC(=O)NCc1ccc2c(c1)OCO2,-0.0335
6,Cc1cccc(C)c1-n1nnnc1SCSc1nnnn1-c1c(C)cccc1C,0.234
7,Cn1c(=O)n(Cc2ccccc2F)c2ccccc21,-0.668
8,CCC(=O)N1CCc2cc(OC)c(OC)cc2C1COc1ccc(C(=O)OC)cc1 (centres undefined),-0.946
9,CNC(=O)COc1ccc(-c2nn(C)c(=O)c3ccccc23)cc1,-0.157
10,CC(=O)NC(CC(=O)NCC(c1ccco1)N(C)C)c1ccccc1 (centres undefined),0.0433
11,Cc1ccc(C(C)C)c(OCc2nnc(SCC(=O)Nc3ncc(C)s3)n2C)c1,0.524
12,CC1CC(C(F)F)n2nc(C(=O)Nc3sc4c(c3C#N)CCC(C(C)(C)C)C4)nc2N1 (centres undefined),0.092
13,COc1cccc(C(=O)Nc2cc(C(=O)NCCc3ccccc3)ccc2Cl)c1,-0.18
14,Cc1cccc(C(=O)c2c(N)sc3c2CCCC3)c1,0.36
15,O=C(NCC(=O)N(c1cccnc1)C(C(=O)NC1CCCCC1)c1cccnc1)c1ccco1 (centres undefined),0.255
16,Cc1ccc(C)c(NC(=O)C2CCC(C)(C(=O)O)C2(C)C)c1 (centres undefined),-0.0102
17,CCOC(=O)c1cc2ccc(OC(=O)c3ccco3)cc2oc1=O,0.37
18,CCCN(CCC)S(=O)(=O)c1ccc(C(=O)Nc2nnc(-c3cccc(OC)c3)o2)cc1,active: 3.65
19,O=C(Nc1ccc2c(c1)OCO2)c1ccc2nc[nH]c2c1,-0.201
20,CC1(C)CC(=O)C2=C(C1)Nc1nc(SCCN3CCOCC3)[nH]c(=O)c1C2c1cccs1 (centres undefined),-1.9
21,Cc1cccc(C)c1N1CCN(c2ccc3nnc(C(F)(F)F)n3n2)CC1,0.438
22,Cc1cc(C)cc(NC(=O)CCN2CC(C)OC(C)C2)c1 (centres undefined),-0.154

row,Compound,z-score
1,CCOCc1cc(C2NC(=O)NC(C)=C2C(=O)OCC)ccc1OC (centres undefined),0.0607
2,Cc1ccc2nc(N/C(N)=N/S(=O)(=O)c3ccc([N+](=O)[O-])cc3)nc(C)c2c1,-0.127
3,O=C(CCS(=O)(=O)c1ccc(Br)cc1)Nc1ccc(Br)cc1F,0.276
4,CCOC(=O)C1CCN(Cc2cccc(OC)c2)CC1,-0.192
5,O=C1C(C=NCc2ccccn2)=C(O)c2ccccc21,-0.00613
6,CCOC(=O)N1CCN(S(=O)(=O)c2cc(-c3nn4c(C)nnc4c4ccccc34)ccc2C)CC1,-1.79
7,CCn1c(COc2ccccc2OC)nnc1SCC#N,-0.326
8,CCOC(=O)N1CCC(N(C(=O)Nc2ccc(CC)cc2)C(C)CC)CC1 (centres undefined),0.168
9,O=C1c2[nH]nc(-c3ccccc3O)c2C(c2ccc(F)cc2)N1Cc1ccco1 (centres undefined),0.574
10,CCCCn1c(SCC(=O)OC)nc2c1c(=O)n(C)c(=O)n2C,-0.0927
11,COc1ccc(N2CCN(C(=O)CCn3nnc4ccccc43)CC2)cc1,-0.0252
12,CCN(CC)C(=O)CSc1nc2ncccc2[nH]1,1.1
13,O=C(NC(=S)Nc1ccccc1)c1cc(-c2ccccc2)nc2ccccc12,active: 9.35
14,COc1ccc(/C=N/Nc2ccccc2)cc1Cn1nc(C)c([N+](=O)[O-])c1C,-0.405
15,COc1ccc(OC)c(/C=N/NC(=O)CCc2ccc(O)c(O)c2)c1,-0.298
16,O=C1c2sc3nc4n(c(=O)c3c2CCC1Br)CCCCC4 (centres undefined),0.732
17,O=C(Nc1ccc2c(c1)OCO2)C(c1ccc(Cl)cc1)N1CCN(C(=O)c2ccco2)CC1 (centres undefined),-0.396
18,O=C(c1ccccc1F)N1CCN(S(=O)(=O)c2ccc3c(c2)OCCO3)CC1,-0.0609
19,Nn1cnc2c([nH]c3ccccc32)c1=O,-0.365
20,Cc1ccccc1OCc1nc(-c2ccc(Br)o2)no1,0.521
21,O=C1CN(C(=O)c2ccco2)c2ccccc2N1,-0.372
